According to publication PMC9741505:
Residue numbers refer to the chain shown, from its start. Read-outs that look alike come from different tables or passages of the source. No constants are given. Whether binding was seen depends on the method and setting. For some of these results: Binding seen in cells or lysates may run through a third protein. Some results given as binding are weak or reduced against the parent protein; the word gives no strength. For some of these results: Where a sequence is shown, tags or fusion partners need not be part of it.

Chains of the proteins cited; added tags and fusions are not shown. Residues count along the entry.
UniProt P00722: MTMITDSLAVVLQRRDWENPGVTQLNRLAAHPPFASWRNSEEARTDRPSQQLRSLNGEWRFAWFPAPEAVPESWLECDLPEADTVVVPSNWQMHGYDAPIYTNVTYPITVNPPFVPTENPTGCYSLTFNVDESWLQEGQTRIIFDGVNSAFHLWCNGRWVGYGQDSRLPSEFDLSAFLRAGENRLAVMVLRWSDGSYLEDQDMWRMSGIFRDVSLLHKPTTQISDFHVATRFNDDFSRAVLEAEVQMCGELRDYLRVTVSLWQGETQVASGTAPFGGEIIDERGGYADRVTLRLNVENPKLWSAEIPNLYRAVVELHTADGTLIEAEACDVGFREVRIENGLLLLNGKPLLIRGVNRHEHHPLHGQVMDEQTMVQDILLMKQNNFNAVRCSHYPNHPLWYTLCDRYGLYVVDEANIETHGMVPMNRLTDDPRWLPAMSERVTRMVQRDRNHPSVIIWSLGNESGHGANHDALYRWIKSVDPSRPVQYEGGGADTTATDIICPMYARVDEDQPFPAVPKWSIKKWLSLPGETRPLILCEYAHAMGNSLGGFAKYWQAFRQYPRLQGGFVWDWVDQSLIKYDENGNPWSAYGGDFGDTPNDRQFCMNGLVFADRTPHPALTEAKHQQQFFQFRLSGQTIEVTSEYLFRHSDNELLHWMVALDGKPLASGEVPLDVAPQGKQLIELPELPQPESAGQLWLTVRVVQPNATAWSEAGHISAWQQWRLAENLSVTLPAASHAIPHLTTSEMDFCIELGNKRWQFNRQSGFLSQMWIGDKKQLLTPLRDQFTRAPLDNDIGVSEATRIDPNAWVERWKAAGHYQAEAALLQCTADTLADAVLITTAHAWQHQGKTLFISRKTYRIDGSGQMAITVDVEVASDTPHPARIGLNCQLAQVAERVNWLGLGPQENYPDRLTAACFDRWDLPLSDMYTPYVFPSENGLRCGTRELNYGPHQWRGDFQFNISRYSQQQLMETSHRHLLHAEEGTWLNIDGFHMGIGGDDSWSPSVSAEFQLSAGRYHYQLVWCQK
UniProt Q9BXM7, residues 78-581: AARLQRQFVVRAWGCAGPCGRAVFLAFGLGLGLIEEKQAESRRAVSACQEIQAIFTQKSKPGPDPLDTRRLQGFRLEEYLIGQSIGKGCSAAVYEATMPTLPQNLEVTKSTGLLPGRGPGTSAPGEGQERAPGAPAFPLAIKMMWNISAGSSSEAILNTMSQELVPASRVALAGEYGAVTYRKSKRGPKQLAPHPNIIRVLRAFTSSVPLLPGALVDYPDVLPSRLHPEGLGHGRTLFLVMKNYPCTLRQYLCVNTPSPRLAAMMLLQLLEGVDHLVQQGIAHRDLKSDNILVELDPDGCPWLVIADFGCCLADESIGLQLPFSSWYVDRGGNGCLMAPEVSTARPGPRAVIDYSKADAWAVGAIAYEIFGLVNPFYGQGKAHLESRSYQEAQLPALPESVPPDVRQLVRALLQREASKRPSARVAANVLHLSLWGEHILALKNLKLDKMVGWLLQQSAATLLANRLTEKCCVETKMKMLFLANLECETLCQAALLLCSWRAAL
UniProt B5DFG1, residues 78-580: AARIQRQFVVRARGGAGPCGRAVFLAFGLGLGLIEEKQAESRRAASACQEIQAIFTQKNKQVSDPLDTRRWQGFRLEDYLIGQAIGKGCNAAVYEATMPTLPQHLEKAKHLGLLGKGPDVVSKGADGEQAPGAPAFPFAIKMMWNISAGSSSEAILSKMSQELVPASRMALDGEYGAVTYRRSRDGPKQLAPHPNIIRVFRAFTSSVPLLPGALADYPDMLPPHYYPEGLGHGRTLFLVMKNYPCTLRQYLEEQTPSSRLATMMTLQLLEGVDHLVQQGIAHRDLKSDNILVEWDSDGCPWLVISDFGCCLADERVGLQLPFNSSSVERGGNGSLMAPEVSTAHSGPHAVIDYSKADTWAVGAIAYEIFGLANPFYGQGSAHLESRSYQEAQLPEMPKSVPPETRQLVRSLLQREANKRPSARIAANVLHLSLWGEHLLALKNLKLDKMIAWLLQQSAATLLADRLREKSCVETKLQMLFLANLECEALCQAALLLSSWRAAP

Assays:
[1] = target: T1, SIAH3, myc-tagged, expressed in HEK293 cells (UniProt Q8IW03); test: co-IP; transfected HEK293 cell lysates; immunoprecipitation with anti-myc (SIAH3), PINK1 detected with anti-Flag
T1 sequence: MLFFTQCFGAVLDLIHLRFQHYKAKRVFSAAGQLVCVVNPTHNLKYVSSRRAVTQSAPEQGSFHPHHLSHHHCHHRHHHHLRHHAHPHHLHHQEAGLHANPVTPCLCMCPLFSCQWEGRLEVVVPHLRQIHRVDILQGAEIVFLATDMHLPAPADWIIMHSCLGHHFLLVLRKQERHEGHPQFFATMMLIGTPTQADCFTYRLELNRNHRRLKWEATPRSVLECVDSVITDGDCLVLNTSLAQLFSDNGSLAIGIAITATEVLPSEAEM

[2] = target: LacZ, myc-tagged (control) [β-galactosidase: P00722]; test: co-IP; reverse assay; immunoprecipitation with anti-myc (SIAH1 or LacZ), PINK1 detected with anti-PINK1
[3] = target: T2, SIAH1, myc-tagged, expressed in HEK293 cells (UniProt Q8IUQ4); test: as above
T2 sequence: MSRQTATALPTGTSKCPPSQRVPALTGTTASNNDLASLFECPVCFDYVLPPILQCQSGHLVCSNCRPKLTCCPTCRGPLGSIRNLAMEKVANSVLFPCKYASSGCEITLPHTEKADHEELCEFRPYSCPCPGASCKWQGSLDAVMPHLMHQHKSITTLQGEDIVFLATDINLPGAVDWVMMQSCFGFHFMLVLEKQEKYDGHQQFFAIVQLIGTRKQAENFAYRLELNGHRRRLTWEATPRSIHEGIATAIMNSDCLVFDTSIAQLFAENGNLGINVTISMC

[4] = target: PINK1, HA-tagged, expressed in HEK293 cells (UniProt Q9BXM7); test: co-IP; transfected HEK293 cell lysates; immunoprecipitation with anti-HA (PINK1), partner detected with anti-myc
[5] = target: PINK1, HA-tagged, expressed in N2a cells (UniProt Q9BXM7); test: co-IP; transfected N2a cell lysates; immunoprecipitation with anti-HA (PINK1), partner detected with anti-myc
[6] = target: His-PINK1, recombinant purified (UniProt Q9BXM7); test: pull-down; in vitro binding with purified proteins only; purified GST-proteins incubated with His-PINK1 or His alone, binding detected with anti-GST; both purified
[7] = target: T3, SIAH3 as used in Figure S4a (UniProt Q8IW03); test: co-IP; Figure S4a; legend and methods not shown
T3 sequence: T1 sequence

[8] = target: PINK1, HA-tagged, expressed in HEK293 cells (UniProt Q9BXM7); test: co-IP; transfected HEK293 cell lysates; immunoprecipitation with anti-HA (PINK1), partner detected with anti-myc; remark: listed apart in the source
[9] = target: PINK1, HA-tagged, expressed in N2a cells (UniProt Q9BXM7); test: co-IP; transfected N2a cell lysates; immunoprecipitation with anti-HA (PINK1), partner detected with anti-myc; remark: listed apart in the source
[10] = target: Endogenous PINK1 of rat brain (rat (endogenous in brain)) (UniProt B5DFG1); test: co-IP; endogenous proteins, rat brains; immunoprecipitation with anti-PINK1, SIAH1 detected with anti-SIAH1; IgG as control

For “PINK1 wild-type, Flag-tagged, expressed in HEK293 cells (from UniProt Q9BXM7 78-581)”, the binding [1] was “binds”.

In the case of “PINK1, HA-tagged, expressed in HEK293 cells (from UniProt Q9BXM7 78-581)”, the binding [2] is reported as “no binding” and the binding [3] is reported as “binds”.

In the case of “LacZ, myc-tagged (control) (from UniProt P00722 1-1024)”, the binding [4] is reported as “no binding”.

With “FKBP12, myc-tagged (control), expressed in N2a cells (from UniProt P62942 1-108)” the binding [5] was “no binding”.

B1: GST-SIAH1, recombinant purified (enzyme, UniProt Q8IUQ4 1-282)
chain: T2 sequence
In the case of B1, the binding [6] is reported as “binds”.

B2: SIAH1 as used in Figures S3f and S4a (enzyme, UniProt Q8IUQ4 1-282)
chain: T2 sequence
B2 was tested, and the binding [7] was “binds”.

B3: SIAH2 (enzyme, UniProt O43255 1-324)
chain: MSRPSSTGPSANKPCSKQPPPQPQHTPSPAAPPAAATISAAGPGSSAVPAAAAVISGPGGGGGAGPVSPQHHELTSLFECPVCFDYVLPPILQCQAGHLVCNQCRQKLSCCPTCRGALTPSIRNLAMEKVASAVLFPCKYATTGCSLTLHHTEKPEHEDICEYRPYSCPCPGASCKWQGSLEAVMSHLMHAHKSITTLQGEDIVFLATDINLPGAVDWVMMQSCFGHHFMLVLEKQEKYEGHQQFFAIVLLIGTRKQAENFAYRLELNGNRRRLTWEATPRSIHDGVAAAIMNSDCLVFDTAIAHLFADNGNLGINVTISTCCP
With B3 the binding [7] was “binds”.

B4: SIAH3, myc-tagged, expressed in HEK293 cells (protein, UniProt Q8IW03 1-269)
chain: T1 sequence
With B4 the binding [8] was “binds”.

B5: SIAH3, myc-tagged, expressed in N2a cells (protein, UniProt Q8IW03 1-269)
chain: T1 sequence
In the case of B5, the binding [9] is reported as “binds”.

B6: SIAH1, myc-tagged, expressed in HEK293 cells (enzyme, UniProt Q8IUQ4 1-282)
chain: T2 sequence
With B6 the binding [8] was “binds”.

B7: Endogenous SIAH1 of rat brain (enzyme, UniProt Q920M9 1-282)
chain: T2 sequence with D116E
In the case of B7, the binding [10] is reported as “binds”.

B8: GST-SIAH3, recombinant purified (protein, UniProt Q8IW03 1-269)
chain: T1 sequence
For B8, the binding [6] was “binds”.
